Laboratory results from publication PMC4336329 (PLoS ONE, 2015).
Hit rate of the full screen: of about 310,000 compounds, about 2,200 (0.71%) showed an effect of 50% or more. The effect is printed as a negative number. This is one part of the list.

target: human ether-à-go-go-related gene (hERG) potassium channel (human, UniProt Q12809); test: primary screen, population patch clamp on CHO cells stably expressing hERG
Sequence (Q12809 whole entry, looked up): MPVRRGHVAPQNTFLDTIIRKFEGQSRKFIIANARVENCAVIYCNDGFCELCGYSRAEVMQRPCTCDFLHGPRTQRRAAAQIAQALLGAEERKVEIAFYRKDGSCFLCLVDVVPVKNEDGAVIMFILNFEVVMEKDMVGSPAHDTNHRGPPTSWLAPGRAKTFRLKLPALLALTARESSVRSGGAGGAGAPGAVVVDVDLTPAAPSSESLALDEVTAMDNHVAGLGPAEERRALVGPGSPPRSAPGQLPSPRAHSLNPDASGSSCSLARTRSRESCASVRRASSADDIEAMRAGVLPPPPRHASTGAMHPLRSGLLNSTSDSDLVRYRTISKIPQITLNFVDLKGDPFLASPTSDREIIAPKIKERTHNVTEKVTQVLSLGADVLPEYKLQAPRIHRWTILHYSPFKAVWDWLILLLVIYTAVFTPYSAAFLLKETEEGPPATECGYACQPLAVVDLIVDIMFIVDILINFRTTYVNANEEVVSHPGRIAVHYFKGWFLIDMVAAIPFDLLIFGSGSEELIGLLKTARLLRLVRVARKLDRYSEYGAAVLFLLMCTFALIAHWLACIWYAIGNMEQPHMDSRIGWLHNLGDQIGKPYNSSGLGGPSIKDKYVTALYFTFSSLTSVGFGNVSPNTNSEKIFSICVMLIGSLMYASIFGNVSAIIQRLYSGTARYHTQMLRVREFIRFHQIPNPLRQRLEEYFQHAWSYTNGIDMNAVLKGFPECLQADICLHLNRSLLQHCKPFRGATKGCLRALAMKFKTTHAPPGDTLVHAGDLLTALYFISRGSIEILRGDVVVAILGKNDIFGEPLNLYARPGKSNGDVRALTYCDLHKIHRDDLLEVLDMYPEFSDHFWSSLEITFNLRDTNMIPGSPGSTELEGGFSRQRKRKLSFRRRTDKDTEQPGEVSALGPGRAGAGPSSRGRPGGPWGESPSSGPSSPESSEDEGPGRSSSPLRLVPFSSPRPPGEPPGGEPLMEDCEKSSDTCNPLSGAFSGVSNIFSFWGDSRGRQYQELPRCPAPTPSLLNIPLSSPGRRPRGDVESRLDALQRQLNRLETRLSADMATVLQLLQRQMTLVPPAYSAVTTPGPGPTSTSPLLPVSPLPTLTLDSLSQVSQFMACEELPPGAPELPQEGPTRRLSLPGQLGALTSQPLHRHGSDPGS

Going from `Cn1c(SCCOc2ccccc2F)nc2ccccc2c1=O` to `CSc1nc(-c2ccco2)nn1C(=O)Cc1ccccc1`, the “hERG current change (%, negative = inhibition) at 1uM” value falls from 9.95% to 7.05%.

First: CCC(=O)Nc1c2c(nc3c1CCC3)CCCC2
Second: CCOC(=O)c1c(NC(=O)CN(CC)CC)sc2c1CCC2
The “hERG current change (%, negative = inhibition) at 1uM” value of the first is higher: 4.39% for the first, 1.63% for the second.

Going from `CCOc1ccc(C(=O)c2cccs2)cc1` to `CCNC(=O)COc1ccc(-c2ccccc2)cc1`, the “hERG current change (%, negative = inhibition) at 1uM” value rises from 7.12% to 10.5%.

Going from `CC1CC(=O)c2cnc(NCC3CCCO3)nc2C1` (stereo not shown) to `Cc1ccc(CN2CCSc3ccc(C(=O)NCC4CCCO4)cc32)cc1` (stereo not shown), the “hERG current change (%, negative = inhibition) at 1uM” value falls from 7.28% to 6.44%.

Going from `Cc1ccccc1NC(=O)COC(=O)Cc1cccc(C(F)(F)F)c1` to `COc1cc(/C=C(\C#N)c2ccccn2)ccc1OCC(=O)Nc1cccc(C(F)(F)F)c1.Cl`, the “hERG current change (%, negative = inhibition) at 1uM” value falls from 14.9% to 5.79%.

First: N#Cc1nc(COc2ccc(Br)cc2)oc1N1CCCCCC1
Second: Cc1ccc2nc3ccc(N4CCCCCCC4)nn3c(=O)c2c1
The “hERG current change (%, negative = inhibition) at 1uM” value of the first is higher: 0.165% for the first, -9.45% for the second.

Compared with `CCOC(=O)COc1cc([N+](=O)[O-])cc2cccnc12`, `COc1ccc(NC(=O)c2cn(CCC#N)nc2-c2cccc([N+](=O)[O-])c2)cc1` is lower in “hERG current change (%, negative = inhibition) at 1uM” value: 12.3% for the first, 7.25% for the second.

Compared with `Cc1ccc2nc(-c3ccc(NS(=O)(=O)c4ccccc4)cc3)sc2c1`, `Cc1cccc(C(=O)Nc2ccc(C(=O)N/N=C/c3cccc(C)n3)cc2)c1` is higher in “hERG current change (%, negative = inhibition) at 1uM” value: 8.44% for the first, 17.5% for the second.

First: COc1ccc(OC)c(CCNC(=O)CCc2nnc3ccc(N4CCCCC4)nn23)c1
Second: CCOc1ccc(N(C)C(=O)CCc2nnc3ccc(N4CCOCC4)nn23)cc1
The “hERG current change (%, negative = inhibition) at 1uM” value of the first is lower: 6.08% for the first, 14.1% for the second.

First: Cc1c(C(=O)Nc2ccncc2)oc2ccccc12
Second: CC(C)(C)NC(=O)c1cc2c(ccc3ccccc32)oc1=O
The “hERG current change (%, negative = inhibition) at 1uM” value of the first is lower: -17.3% for the first, 20% for the second.

First: CSCCC(NC(=O)c1ccccc1Br)C(=O)N1CCC(C)CC1 (stereo not shown)
Second: COc1ccccc1CCN1CCCC(CN(C)C(=O)CCC(N)=O)C1 (stereo not shown)
The “hERG current change (%, negative = inhibition) at 1uM” value of the first is lower: 16% for the first, 16.9% for the second.

Compared with `CCC(=O)NN1CCc2cc3ccc(C)cc3nc21`, `CCOc1ccccc1NC(=O)CCS(=O)(=O)c1ccc2c(c1)CCN2C(C)=O` is higher in “hERG current change (%, negative = inhibition) at 1uM” value: 14.2% for the first, 17.8% for the second.

First: COc1ccccc1-c1cc(C(F)(F)F)c(C#N)c(=O)[nH]1
Second: COc1ccc(CCN(C)C(=O)CCNS(=O)(=O)c2ccccc2C(F)(F)F)cc1OC
The “hERG current change (%, negative = inhibition) at 1uM” value of the first is lower: 7.15% for the first, 10.6% for the second.

Going from `COC(=O)[C@@H]1C[C@@]2(O)[C@H](O)[C@H](O)[C@H](O)C[C@H]2N1Cc1cc(F)ccc1F` to `COC(=O)c1ccccc1NC(=O)Cn1c(SC)c(F)cnc1=O`, the “hERG current change (%, negative = inhibition) at 1uM” value falls from 11% to 7%.

First: O=C(CSc1nc2ncccc2[nH]1)Nc1ccc2c(c1)OCCO2
Second: COc1ccc(-c2cc(C(F)(F)F)nc(SCC(=O)Nc3ccc4c(c3)OCO4)n2)cc1OC
The “hERG current change (%, negative = inhibition) at 1uM” value of the first is higher: 4.4% for the first, 2.19% for the second.

First: COc1cc2[nH]c3c(N4CCN(c5ccccn5)CC4)ncnc3c2cc1OC
Second: CCOC(=O)C1=C(C)OC(N)=C(C#N)C1c1ccc(OC)c(CSc2ccccn2)c1 (stereo not shown)
The “hERG current change (%, negative = inhibition) at 1uM” value of the first is higher: 13.1% for the first, 5.22% for the second.

Going from `COc1cc(CNCCCN2CCOCC2)ccc1OCC(=O)Nc1cccc(C(F)(F)F)c1.Cl` to `COc1ccc(-n2c(=O)/c(=C\c3cccs3)s/c2=C(/C#N)C(=O)NCCN2CCOCC2)cc1`, the “hERG current change (%, negative = inhibition) at 1uM” value rises from -23.9% to 14.3%.

Going from `Cc1nc(C(=O)NC2CCCCC2)sc1C1(C)CC(c2cccnc2)=NO1` (stereo not shown) to `COC(=O)C1=C(c2cc3ccccc3s2)C[C@@H]2CC[C@H]1N2C(=O)NC1CCCCC1`, the “hERG current change (%, negative = inhibition) at 1uM” value falls from 8.91% to -3.87%.

Compared with `CCOCCc1nn2c(=O)cc(CSCC(=O)Nc3ccccc3)nc2s1`, `Nc1nc(SCC(=O)Nc2ccc(Oc3ccccc3)cc2)n[nH]1` is lower in “hERG current change (%, negative = inhibition) at 1uM” value: 14.9% for the first, 6.43% for the second.

Going from `CCNC(=S)N/N=C/c1cccc(C)c1` to `O=C(Cn1cncn1)N/N=C/c1ccccc1O`, the “hERG current change (%, negative = inhibition) at 1uM” value falls from 8.19% to 6.95%.

Going from `CC(C)CCn1c(O)c(N=NC(=O)c2ccco2)c2ccccc21` to `O=C(O)c1ccc(CSc2nnc(Cc3ccccc3)o2)cc1`, the “hERG current change (%, negative = inhibition) at 1uM” value falls from 11.4% to -1.82%.

First: Cc1nn(C)c(NC(=O)c2ccc(Cl)cc2)c1Cl
Second: Cc1ccc(NC(=O)c2c(C)nc3ccccn23)cc1C
The “hERG current change (%, negative = inhibition) at 1uM” value of the first is higher: 10.2% for the first, 7.72% for the second.

Going from `Cc1ccc(-n2nc3c(c2NC(=O)C2CC2)CS(=O)(=O)C3)cc1C` to `COc1cc(C)nc(N2CCCC(C(=O)Nc3cccc(Cl)c3C)C2)n1` (stereo not shown), the “hERG current change (%, negative = inhibition) at 1uM” value rises from 4.41% to 5.28%.

First: COc1cc2ccc(=O)oc2c(O)c1OCC=C(C)C
Second: Cc1ccc(NC(=O)COc2ccc(Br)cc2C)cc1
The “hERG current change (%, negative = inhibition) at 1uM” value of the first is higher: 9.16% for the first, -1.08% for the second.

First: CCc1cc2cc(C(=O)Nc3ccc(F)cc3)sc2s1
Second: Cc1cccc2nc(CNc3ccc(F)cc3)cn12
The “hERG current change (%, negative = inhibition) at 1uM” value of the first is lower: -4.58% for the first, 0.326% for the second.

Going from `CC(C)CNC(=O)C(=O)NCCC1CCCCN1S(=O)(=O)c1cccs1` (stereo not shown) to `O=C(O)C1CCCCN1S(=O)(=O)c1ccccc1` (stereo not shown), the “hERG current change (%, negative = inhibition) at 1uM” value rises from 6.11% to 9.44%.

Going from `CCCOc1c(Br)cc(C2C3=C(CCCC3=O)N(CC)C3=C2C(=O)CCC3)cc1OC` to `COc1cc2c(cc1OC)C(=O)CCS2`, the “hERG current change (%, negative = inhibition) at 1uM” value falls from 9.24% to 4.62%.

Compared with `COc1ccc(CN(C(=O)c2ccccc2Br)C2CCS(=O)(=O)C2)cc1` (stereo not shown), `COc1ccc(CN(C(=O)c2nsc(Cl)c2Cl)C(C(=O)NC2CCCC2)c2ccc(OC)cc2)cc1` (stereo not shown) is higher in “hERG current change (%, negative = inhibition) at 1uM” value: 7.85% for the first, 9.92% for the second.

Going from `O=C1OC(/C=C/c2ccccc2)=NC/1=C\c1cccnc1` to `O=C(CCc1ccccc1)Nc1nnc(-c2ccccn2)o1`, the “hERG current change (%, negative = inhibition) at 1uM” value falls from 16.5% to 5.94%.

First: CNCc1ccccc1Sc1ccc(O)c(O)c1.O=C([O-])/C=C\C(=O)[O-]
Second: CCOc1cc(C2C(C(=O)c3ccccc3)=C(C(=O)OC)Nc3nnnn32)ccc1O (stereo not shown)
The “hERG current change (%, negative = inhibition) at 1uM” value of the first is lower: 1.86% for the first, 9.59% for the second.

Going from `CCCCn1c(N2CCCC2)nc2c1c(=O)[nH]c(=O)n2C` to `CCCCn1c(N)c(N(CCC(C)C)C(=O)c2[nH]c(C)c(C(=O)OCC)c2C)c(=O)[nH]c1=O`, the “hERG current change (%, negative = inhibition) at 1uM” value falls from 7.8% to -2.37%.

Compared with `COc1cc(/C=N/NC(=O)c2nnn(-c3nonc3N)c2-c2cccs2)ccc1O`, `CCn1c(SCC(=O)c2ccc3ccccc3c2)nnc1-c1cccs1` is higher in “hERG current change (%, negative = inhibition) at 1uM” value: -4.65% for the first, -0.175% for the second.

Compared with `O=C(NNS(=O)(=O)c1ccc(F)cc1)c1cccc(O)c1`, `CSc1ccccc1C(=O)N1CCN(c2ccc(F)cc2)CC1` is lower in “hERG current change (%, negative = inhibition) at 1uM” value: 16% for the first, -8.31% for the second.

Going from `CCCC(=O)Nc1cccc(Oc2ccc3c(c2)C(=O)NC3=O)c1` to `COc1cccc(NC(=O)CC2SC(=Nc3ccccc3)NC2=O)c1` (stereo not shown), the “hERG current change (%, negative = inhibition) at 1uM” value falls from 9.76% to 8.25%.

Compared with `Cc1ccsc1C1C2=C(CC(C)(C)CC2=O)Nc2ncnn21` (stereo not shown), `NC(=O)COc1ncnc2scc(-c3ccc(F)cc3)c12` is higher in “hERG current change (%, negative = inhibition) at 1uM” value: 7.12% for the first, 9.57% for the second.

Compared with `Cc1ccc(S(=O)(=O)NCC2CCC(C(=O)NCc3ccco3)CC2)cc1` (stereo not shown), `O=C(C1CC1)N1CCc2cc(Br)cc(S(=O)(=O)NCc3ccco3)c21` is lower in “hERG current change (%, negative = inhibition) at 1uM” value: -14.7% for the first, -20.1% for the second.

First: C=C1CCN([C@@H](CC(C)C)C(=O)NCCCc2ccccc2)S(=O)(=O)c2ccccc21
Second: Cc1ccccc1NC(=O)CNc1ccccc1N1CCCCC1
The “hERG current change (%, negative = inhibition) at 1uM” value of the first is lower: 1.55% for the first, 6.7% for the second.

Going from `Cc1occc1C(=O)N1CCCc2ccccc21` to `Cc1ccc(C2(c3ccccc3)NC(=O)N(CC(=O)N3CC(=O)Nc4ccccc43)C2=O)cc1C` (stereo not shown), the “hERG current change (%, negative = inhibition) at 1uM” value falls from 8.98% to 2.1%.

First: CC1CCC(C(C)C)C(OC(=O)COC(=O)c2ccc(N)cc2)C1 (stereo not shown)
Second: COC(=O)COc1ccc(S(=O)(=O)NC2CCCCCC2)cc1
The “hERG current change (%, negative = inhibition) at 1uM” value of the first is lower: 8.82% for the first, 9.53% for the second.

Going from `Clc1ccc2nc(SCc3nnc(-c4ccccc4)o3)[nH]c2c1` to `O=C(COC(=O)/C=C/c1ccc(Cl)cc1)Nc1ccccc1-c1ccccc1`, the “hERG current change (%, negative = inhibition) at 1uM” value rises from 0.808% to 13.9%.

Going from `CCCCCN(C(=O)CCC(=O)OCc1ccccc1C)c1c(N)n(CCCC)c(=O)[nH]c1=O` to `Cn1c(=O)n(CCO)c(=O)c2c1nc(Br)n2Cc1ccccc1`, the “hERG current change (%, negative = inhibition) at 1uM” value falls from 7.65% to 5.39%.

Going from `COc1ccc(-c2noc(CCC(=O)Nc3cccc(C)c3)n2)cc1` to `Cc1cc(C)cc(OCC(=O)Nc2cc(C)on2)c1`, the “hERG current change (%, negative = inhibition) at 1uM” value rises from 8.39% to 15.8%.

Compared with `CSc1ccc(S(=O)(=O)NCC(=O)OCC(=O)NCC2CCCO2)cc1[N+](=O)[O-]` (stereo not shown), `CCOC(=O)C1CCCN(S(=O)(=O)c2ccc3c(c2)N(C)C(=O)CC(=O)N3C)C1` (stereo not shown) is higher in “hERG current change (%, negative = inhibition) at 1uM” value: 9.64% for the first, 11.1% for the second.

Compared with `CCCCn1c(C)csc1=Nc1cccnc1`, `O=C(c1cc(COc2cccc(C(F)(F)F)c2)on1)N1CCC(Oc2cccnc2)CC1` is higher in “hERG current change (%, negative = inhibition) at 1uM” value: 7.6% for the first, 7.8% for the second.

Compared with `CC(C)Oc1c(Cl)cc(CNC(C)(C)CO)cc1Cl`, `O=C(Nc1ccc(Cl)c(Cl)c1)OCCNC(=O)c1ccncc1` is lower in “hERG current change (%, negative = inhibition) at 1uM” value: 12.8% for the first, 11.5% for the second.

For `O=C(CCC1CCCC1)N1CCN(C(=O)C2CC2)CC1`, the “hERG current change (%, negative = inhibition) at 1uM” value was 11.1%.
